Measurements: PubChem BioAssay AID1460 (National Center for Advancing Translational Sciences (NCATS), 2008)
Among all 270,000 compounds or so, about 5,800 (2.1%) were called active. This list was built around the results that the source calls inconclusive (neither active nor inactive); the mix of calls is not that of the screen. The call rests on the fitted dose curve; in most records, active means well fitted inhibition curve with a large enough effect; inconclusive means small, poorly fitted or top-dose-only effect; inactive means flat fitted curve, though single readings scatter. Potencies beside an inconclusive call are fits to weak or partial responses and may not hold up. The source holds several records for some structures; these can differ, active in one and inactive in another.

The compounds below were run against Microtubule-associated protein tau (Homo sapiens) (UniProt P10636) (assay: qHTS for Inhibitors of Tau Fibril Formation, Thioflavin T Binding). Conditions: recombinant tau K18 P301L, heparin-induced fibrillization, ThT fluorescence; series mostly up to 57.4 µM; activity, negative = inhibition: at the top concentration.
Method in brief: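 Using a mix of unlabeled (15 uM) and Alexa 594-labeled (0.24 uM) tau K18 P301L, heparin-triggered fibrillization over 6 hr at 37 C was scored by ThT fluorescence.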
Further: nearly all actives have a fitted effect of over 55% in size.
On the % scale 0 is the no-effect control and ±100 the full control effect; potency means the concentration at half of the fitted maximal effect; tags describe the fitted curve by direction and shape.

UniProt P10636, sequence (P10636 whole entry, looked up): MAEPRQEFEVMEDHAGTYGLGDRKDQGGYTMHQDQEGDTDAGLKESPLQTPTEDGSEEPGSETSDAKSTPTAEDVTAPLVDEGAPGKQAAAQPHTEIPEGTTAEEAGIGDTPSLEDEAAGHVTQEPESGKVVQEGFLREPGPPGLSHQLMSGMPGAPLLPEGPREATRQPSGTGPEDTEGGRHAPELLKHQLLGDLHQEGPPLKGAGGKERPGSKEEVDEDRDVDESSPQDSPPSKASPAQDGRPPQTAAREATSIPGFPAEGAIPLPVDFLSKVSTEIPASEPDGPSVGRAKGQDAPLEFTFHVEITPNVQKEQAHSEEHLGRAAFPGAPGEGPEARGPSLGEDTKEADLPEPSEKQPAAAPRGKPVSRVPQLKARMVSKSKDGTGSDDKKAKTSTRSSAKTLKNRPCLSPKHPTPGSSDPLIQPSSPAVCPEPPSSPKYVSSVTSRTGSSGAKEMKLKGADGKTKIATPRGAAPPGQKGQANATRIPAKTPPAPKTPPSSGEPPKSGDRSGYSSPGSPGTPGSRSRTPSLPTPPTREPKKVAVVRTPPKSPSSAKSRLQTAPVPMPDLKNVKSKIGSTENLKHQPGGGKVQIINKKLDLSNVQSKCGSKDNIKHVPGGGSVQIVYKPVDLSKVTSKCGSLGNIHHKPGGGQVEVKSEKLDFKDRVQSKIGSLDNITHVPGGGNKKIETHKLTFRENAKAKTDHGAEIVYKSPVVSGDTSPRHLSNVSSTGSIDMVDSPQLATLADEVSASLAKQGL

Structure (SMILES) | activity, negative = inhibition | Potency
COc1cc(C(=O)NC2(C(F)(F)F)C(=O)NC(C)=C2C#N)cc(OC)c1OC (configuration not stated) | inactive: -11.5% | –
O=C(CCNc1ccc(F)cc1)c1cccc([N+](=O)[O-])c1 | – | inconclusive: 12.6 µM [inhibitor, partial curve]
Cc1nn(-c2ccccc2)c(C)c1C(=O)OCC(=O)Nc1ccc2c(c1)OCO2 | – | inconclusive: 17.8 µM [inhibitor, partial curve, poor fit]
O=C(CN1CCN(c2ncccn2)CC1)NCCC1=CCCCC1 | inactive: -2.11% | –
CN(C)S(=O)(=O)Oc1ccsc1C(=O)Nc1ccc(Cl)cc1 | inactive: -5.38% | –
COc1ccc(OCC(=O)Nc2cccc3ncccc23)cc1 | inactive: 0.959% | –
CCCCC/C=C/C=C1/C(=O)C=C[C@@H]1C/C=C\CCCC(=O)O | – | active: 15.8 µM
COc1cccc(CNC(=O)c2cccc(N3CCCS3(=O)=O)c2)c1 | inactive: -2.54% | –
Brc1ccc(-c2csc(N/N=C/c3ccc4c(c3)OCO4)n2)cc1 | – | active: 4.47 µM
COc1cccc2sc(Nc3nnc(-c4ccc(F)cc4)o3)nc12 | – | inconclusive: 12.6 µM [inhibitor, partial curve]
CS(=O)(=O)CCC(C(=O)OCc1ccc(Br)cc1)N1C(=O)c2ccccc2C1=O (configuration not stated) | inactive: -3.47% | –
CC(C)NC(=O)COc1ccc(S(=O)(=O)N(C)Cc2ccccc2)cc1 | inactive: -5.89% | –
CCc1ccc(NC(=O)C2CCCN(S(=O)(=O)c3ccc4c(c3)oc(=O)n4C)C2)cc1 (configuration not stated) | – | inconclusive: 39.8 µM [inhibitor, single point]
Cc1cccc(OCC(=O)N=Nc2c(O)[nH]c3ccc([N+](=O)[O-])cc23)c1 | – | active: 3.98 µM
COc1ccc(-c2cc(C(=O)Nc3ccc4c(c3)OCO4)no2)cc1 | – | inconclusive: 0.708 µM [inhibitor, full curve]
Oc1ccc(Br)cc1-c1cc(-c2ccccc2)n[nH]1 | inactive: -6.7% | –
C[C@@H](c1ccccc1)N1C(=O)[C@H]2[C@H]3[C@H](O)[C@H](O)C/C(=N/OCc4ccccc4)[C@@H]3CC[C@@H]2C1=O | inactive: -8.45% [at 11.5 µM] | –
COC(=O)[C@H]1[C@H]2C[C@@H]3c4[nH]c5cc(OC)ccc5c4CCN3C[C@H]2C[C@@H](OC(=O)c2ccc(N)cc2)[C@@H]1OC | – | active: 14.1 µM
Cc1ccc(-c2nc3ccccn3c2NCc2ccc3c(c2)OCO3)cc1 | – | inconclusive: 31.6 µM [inhibitor, partial curve]
CC/C(=N/Nc1ccccc1)c1cnnc(-c2ccccc2)n1 | – | inconclusive: 1.12 µM [inhibitor, partial curve]
CCN(CC)C(=O)c1c(NC(=O)c2ccccc2F)sc2c1CCC(C(C)(C)C)C2 (configuration not stated) | – | inconclusive: 22.4 µM [inhibitor, partial curve]
COc1ccccc1CSc1ncc(-c2ccc([N+](=O)[O-])cc2)[nH]1 | – | active: 14.1 µM
Cc1cc(=O)[nH]c(N/N=C/C2=C(N3CCOCC3)C(=C\c3ccc(Cl)cc3)/CC2)n1 | – | active: 22.4 µM
CCc1nn(CC(=O)NCCc2ccc(Cl)cc2)c(=O)c2cc3c(OC)cccc3n12 | – | inconclusive: 0.112 µM [inhibitor, full curve, poor fit]

Structure (SMILES) | activity, negative = inhibition | Potency
CCSc1ccccc1C(=O)N1CCN(c2nc3ccccc3s2)CC1 | inactive: -6.43% | –
O=C(NC1CCCCC1)C(c1cc2c(cc1[N+](=O)[O-])OCO2)N1CCCCC1 (configuration not stated) | inactive: -9.81% | –
Cc1ccc(NC(=O)CSc2ncc(-c3ccccc3)n2C(=O)c2ccccc2)cc1 | – | inconclusive: 12.6 µM [inhibitor, partial curve]
Cc1ccc(/C=C/C(=O)c2ccccc(=O)c2O)cc1C | – | active: 12.6 µM
CCNc1nc(SCCOc2ccc(Cl)cc2Cl)nc(N(C)C)n1 | – | inconclusive: 39.8 µM [inhibitor, single point]
Cc1sc2nc(C(C)C)nc(SCC(=O)N3c4ccccc4CC3C)c2c1C (configuration not stated) | – | inconclusive: 15.8 µM [inhibitor, partial curve]
COc1cccc(C=Nc2cccc3c(=O)[nH][nH]c(=O)c23)c1O | – | inconclusive: 1.58 µM [inhibitor, partial curve]
CN1C(=O)CC(C(=O)O)SC1=Nc1cc(Cl)cc(Cl)c1 (configuration not stated) | inactive: 10.2% | –
CCOC(=O)Cc1csc(NC(=O)c2csc(C)c2)n1 | inactive: -14.6% | –
CCCCCC(=O)NC(=S)NNC(=O)c1ccc([N+](=O)[O-])cc1 | – | inconclusive: 28.2 µM [inhibitor, single point]
Oc1ccc(N=Nc2n[nH]c(-c3ccc(Cl)cc3)n2)cc1 | – | active: 1.78 µM
C#C[C@]1(O)CCC2C3CCC4=C(CCC(=O)C4)C3CC[C@@]21C (some centres not stated) | – | inconclusive: 39.8 µM [inhibitor, partial curve]
COc1ccc(C(=O)NN=C(Cc2ccccc2)Cc2ccccc2)cc1OC | – | inconclusive: 44.7 µM [inhibitor, single point]
Cc1nn(Cc2ccccc2)c2c1C(c1ccncc1)C(C#N)=C(N)O2 (configuration not stated) | – | inconclusive: 25.1 µM [inhibitor, partial curve]
COc1cc(/C=C(/C#N)c2nc(-c3cc4ccccc4oc3=O)cs2)ccc1O | – | active: 4.47 µM
COc1ccc(Nc2nc3c(S(=O)(=O)c4ccccc4)nnn3c3ccc(Cl)cc23)cc1 | inactive: 10.6% | –
COc1ccc(-c2ccc(SCC(=O)c3cccs3)nn2)cc1 | – | inconclusive: 25.1 µM [inhibitor, single point]
COC(=O)CSc1nnc(-c2ccc3c(c2)OCO3)n1C | inactive: -4.65% | –
COCCNC(=O)CSc1nc2ccc(N3CCOCC3)cc2c(=O)n1Cc1ccc(OC)cc1 | – | inconclusive: 22.4 µM [inhibitor, partial curve]
O=C(NCCc1ccc(Cl)cc1)C1CCN(c2ncccn2)CC1 | inactive: 8.53% | –
CCS(=O)(=O)N1CCCc2cc(C(=O)Nc3cc([N+](=O)[O-])ccc3C)ccc21 | – | inconclusive: 35.5 µM [inhibitor, single point]
COc1ccc(N2CSC3=C(C#N)C(c4cccc(OC)c4OC)CC(=O)N3C2)cc1 (configuration not stated) | – | active: 17.8 µM
CCOC(=O)/C=C1\SCC(=O)N1Cc1nnc(-c2ccccc2Br)o1 | – | inconclusive: 14.1 µM [inhibitor, partial curve]
Cc1ccc(NC(=O)CN2C(=O)C(c3ccccc3)=NC23CCCCC3)cc1C | inactive: 2.35% | –

Structure (SMILES) | activity, negative = inhibition | Potency
COc1ccc(NC(=O)c2ccco2)cc1NC(=O)c1cc2ccccc2o1 | – | inconclusive: 6.31 µM [inhibitor, partial curve]
CCn1c(SCC(=O)Nc2ccc3c(c2)c2ccccc2n3CC)nnc1-c1cnccn1 | – | inconclusive: 5.62 µM [inhibitor, partial curve]
Cc1ccc(C2(C)NC(=O)N(CC(=O)c3ccc(Cl)s3)C2=O)cc1 (configuration not stated) | – | inconclusive: 44.7 µM [inhibitor, single point]
O=C(Nc1cnn(Cc2ccc(Cl)cc2Cl)c1)c1noc2c1CCCC2 | – | inconclusive: 28.2 µM [inhibitor, partial curve]
Cc1c(Br)c([N+](=O)[O-])nn1CCCC(=O)Nc1sc2c(c1C#N)CCC2 | – | inconclusive: 15.8 µM [inhibitor, partial curve]
Cc1cccc(NC(=S)NNC(=O)COc2ccc(Cl)cc2Cl)c1 | – | inconclusive: 14.1 µM [inhibitor, partial curve]
CSc1cccc(-n2nnc(-c3nsc(NC(=O)c4cccs4)n3)c2C)c1 | – | inconclusive: 0.794 µM [inhibitor, full curve]
CNC(=O)COC(=O)c1ccccc1C(=O)c1ccc(Cl)c([N+](=O)[O-])c1 | – | inconclusive: 15.8 µM [inhibitor, partial curve]
COc1ccc(CCNC(=O)c2ccc3c(c2)nc(C)n3-c2ccc(Br)cc2)cc1OC | – | inconclusive: 14.1 µM [inhibitor, single point]
Cc1cc(C)c(NC(=O)CS(=O)CC(=O)NC2CCCc3ccccc32)c(C)c1 (configuration not stated) | – | inconclusive: 35.5 µM [inhibitor, single point]
CC(C)Oc1ccc(/C=N/NC(N)=S)cc1 | inactive: -4.13% | –
O=C(Cc1ccccc1)NCC(=O)OCC(=O)c1ccc([N+](=O)[O-])cc1 | – | inconclusive: 31.6 µM [inhibitor, partial curve]
O=C(/C=C/c1ccc(Cl)c(Cl)c1)N1CCc2ccccc21 | – | inconclusive: 0.794 µM [inhibitor, full curve]
CN1C(=O)c2ccccc2C(C(=O)O)C1c1cccc(Cl)c1 (configuration not stated) | inactive: 8.96% | –
COc1ccc(C(=O)NN/C(C)=C/C(=O)C(F)(F)C(F)(F)C(F)(F)F)cc1 | – | inconclusive: 31.6 µM [inhibitor, single point]
COc1cccc(C(=O)NC(=S)Nc2ccc(N(C)C)cc2)c1 | – | active: 7.94 µM
Cc1nc2c3ccccc3nc(NNC(=O)CCC(=O)O)n2n1 | inactive: 1.8% | –
COc1ccc(NS(=O)(=O)c2ccc(N3CCCC3)c(NC(=S)Nc3ccc(SC(F)F)cc3)c2)cc1 | – | inconclusive: 14.1 µM [inhibitor, partial curve]
COC(=O)c1ccc(NC(=O)C(C)Sc2nc(=O)cc(N)n2CCc2ccccc2)cc1 (configuration not stated) | inactive: -9.64% | –
COc1ccc(-c2nc(/C=C3\C(C)=Nc4ccccc43)c(O)o2)cc1 | – | active: 3.98 µM
Cc1cccc(NC(=O)Nc2ccccn2)c1C | – | inconclusive: 2.24 µM [inhibitor, full curve, poor fit]
Cc1ccc(NC2=C(NCCO)C(=O)c3ccccc3C2=O)cc1 | – | active: 22.4 µM
Cc1cc2c(C)nc(N/N=C/c3ccc([N+](=O)[O-])cc3)nc2o1 | – | active: 3.16 µM
O=C(COC(=O)CCc1c[nH]c(=O)[nH]1)Nc1cccc(Cl)c1 | – | inconclusive: 31.6 µM [inhibitor, partial curve]
